# Assay results taken from the supplement of paper PMC11417369.
# The other results are listed elsewhere or left out.
# Test system: PF3D7_0420300 AP2 domain 1 (GST-tagged)
# Experiment: gcPBM binding intensity (ln(normalized median fluorescence intensity)); higher = stronger DNA binding
# How it was run: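 GST-fused DNA-binding domains of P. falciparum, expressed in E. coli, were applied at about 25 μg on average for 1 h to an Agilent 4 × 180k array of primer-extended double-stranded 36-bp intergenic genomic probes and negative controls. Binding intensity is the highest Masliner-normalised natural-log median intensity across replicate spots of either probe orientation, measured with Alexa488 anti-GST antibody and a 488 nm scan.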
row,Sequence,gcPBM binding intensity (ln)
1,CACAAAAATTTATACACACACATATATAATATATAT [CACACA_site152],9.88
2,AAGTATTACAACCACACACACACCTATATATCATAG [CACACA_site7878],9.98
3,ATCTTTTACGAATACACACACATAAAGAAAAAAAAA [CACACA_site1331],9.85
4,ATACATATAAAAAAGTGTACATATTAAAATAAGTAT [XGTACX_site1310],9.5
5,TTTTTTATAAATCAAATGAAAAATAAACTATTCAGA [CACACA_negctrl_site1568],8.75
6,ATATCCGTTCAAAGATGTACATATATATTCTATAGA [XGTACX_site5354],9.17
7,AATGCAAATAATAAAACACACAAAAAAAAGAAAAAA [CACACA_site1184],9.76
8,TCATACAAACCTATTTGTACATAAGTATAATATATA [XGTACX_site4284],9.08
9,TATTGCCCTGGACACACACACATATATATATATATA [CACACA_site5389],9.88
10,ATAATATAAACATACACACACACATCTATATTTATA [CACACA_site7381],10.1
11,ATTATTATTATATATGCATGTAAAATATTAAAGTAC [TGCATGCA_site914],9.31
12,TTATGTTATATAAAAAGTACAAATTTTTTTTAATTA [XGTACX_site3435],8.76
13,TCCTACATATAAAAATGTACCCATTGTTTTTTTTTT [XGTACX_site7205],9.11
14,TATATATATATATATACACACATATACATATTGTTT [CACACA_site3499],9.3
15,AATGTATATAGAAACATGCACACGTGGTTGTATATA [CACACA_site3278],9.6
16,TTGTGTTAACTACCATGTACTTATACATCATAGGAA [XGTACX_site6627],8.97
17,TTTTTGTATGCTTCCCGATTACATTATGTTGTAAAT [CACACA_negctrl_site227],9.53
18,ATTTATGTTATATATACACACACAAAAGAAAAAAAA [CACACA_site8977],9.82
19,ATTGTCTTTTAATAGTGTACTTATTTTAAATATTGC [XGTACX_site8517],9.39
20,TTTCTAATATATAAAGTGCAATACCATTCAGAGTTA,9.08
21,ATATGGAAGAATTAAAGTACTTAAAAAAATGTCAGT [XGTACX_site6837],9.43
22,TTTTATAGAGTGTATACATGCAATACCACATAAAAT [TGCATGCA_site476],9.29
23,TATAATTTATAAGTAGTGCATTTCTTTTCATTTTTA,9.22

row,Sequence,gcPBM binding intensity (ln)
1,AAGAAAATAAAATAAAATAAAATAAAATAAAAATAT [TGCATGCA_negctrl_site493],9.46
2,TTATTATATATAAGTAGTACAAACAATTAAGAGATA [XGTACX_site4009],9.47
3,TGATGATATAAAAACACACACATATAACATAATACT [CACACA_site6687],9.95
4,TTTCTTTCTATTGTTATATTTATAATAATTATAATT [XGTACX_negctrl_site215],9.33
5,TATAAAATTACATTTTGTCATTTATTTTTTCCCACT [TGCATGCA_negctrl_site110],9.13
6,TGTTTAAGTGTTTTTAGTACTTATAAAAATATTATC [XGTACX_site7379],8.96
7,ATATTATCCCTATTTGCACACAAGAGTAATTTTTTA [CACACA_site3908],9.47
8,CTTTTTAATTAATACACACACACACCCATATATATA [CACACA_site2292],10.2
9,ATCACTTGAGAATAATTACATTAATATATATTTATG [TGCATGCA_negctrl_site581],9.14
10,GGGAAAGAACCATATACATGCATATTTACCGTTAAA [TGCATGCA_site519],9.18
11,CATATACATACACATACACACATACAGACATACACA [CACACA_site6919],9.83
12,TGAAATTTTATTAATGTGCACATATATTTATTGTTC,9.25
13,TTTTTTTTTTTTAATACACACATATATATATTTATT [CACACA_site3994],9.48
14,GTAAAAAAAAAAAAATGTACACATATATATAATATA [XGTACX_site159],9.18
15,AACATAATTAAAAATTGTACAGAATTTCAATCGAAA [XGTACX_site7542],9.24
16,ATAAAAATGTATATATGTACATATATATATATATAT [XGTACX_site1505],9.28
17,ATATGTGTTAAAAATGCACACAAAAAAATATACATA [CACACA_site7988],9.52
18,CAATTTTACTCATAAACACACATATATATGTTATTA [CACACA_site3152],9.32
19,TGATATTATATTGTGATGCACTTTAAAAATATAAAG [GTGCAC_site9509],8.96
20,ATGGTTTAATTATATACACACTCGAAAATAACGACA [CACACA_site3258],9.35
21,TTTTACAAATGTTTTACACACACATAATTGTATCAA [CACACA_site4166],9.75
22,AAAAAAAGGATGTACGTATCATAATTTTATTTTATA [CACACA_negctrl_site1543],9.12
